# Test results published in PubChem BioAssay AID1346428 (National Center for Advancing Translational Sciences (NCATS), 2018).
# The campaign covered roughly 48,000 compounds. About 1,200 (2.5%) were called active. Roughly 2% stayed inconclusive and do not appear here.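 The calls were made as follows: active = activation of at least 60% and not above a set upper limit (about 1 call in 100 departs from these limits); inconclusive = activation of 40% to 60%, or above that upper limit; inactive = activation under 40%.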 Some of the results follow.
# Molecular target: Probable G-protein coupled receptor 32 (Homo sapiens) (UniProt O75388)
# Assay: qHTS for Agonists of Human Resolvin D1 Receptor DRV1
# Settings: CHO-K1 GPR32 beta-arrestin PathHunter luminescence, 90 min; at 76.9 µM; stronger effect = higher value; zero percent set by DMSO-only wells
# Outline: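 PathHunter enzyme-fragment complementation, CHO-K1 GPR32 stable line; 2,500 cells/well, overnight attach; cpd 90 min 37 °C 5% CO2; detection reagent 1 h RT; chemiluminescence. DMSO = EC0.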
# Chain of UniProt O75388 (O75388 whole entry, looked up): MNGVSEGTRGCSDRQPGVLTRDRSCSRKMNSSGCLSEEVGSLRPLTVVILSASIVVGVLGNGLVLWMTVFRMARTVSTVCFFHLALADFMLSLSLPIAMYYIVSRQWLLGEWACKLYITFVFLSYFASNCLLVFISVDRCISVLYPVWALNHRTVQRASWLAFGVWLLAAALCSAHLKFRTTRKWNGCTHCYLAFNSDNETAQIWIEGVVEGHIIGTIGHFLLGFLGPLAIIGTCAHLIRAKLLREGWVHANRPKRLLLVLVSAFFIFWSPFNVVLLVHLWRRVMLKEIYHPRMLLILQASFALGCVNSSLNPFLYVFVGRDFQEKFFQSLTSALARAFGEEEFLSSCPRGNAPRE
row,SMILES,activation
1,Cc1ccc(-n2nc3c(N4CCCC(C(=O)NCc5ccc(Cl)cc5)C4)nnc(C)c3c2C)cc1 (centres undefined),inactive: 25.6%
2,COC(=O)c1ccc2c(c1)N(CC(=O)Nc1ccc(OC)c(Cl)c1)C(=O)c1ccccc1S2,inactive: -4.73%
3,CCn1c(=O)c2sccc2n2c(CCCC(=O)N3CCN(c4cccc(Cl)c4)CC3)nnc12,inactive: 5.21%
4,Cc1ccc(-c2nn3c(=O)cc(CN4CCN(C(=O)/C=C/c5ccccc5)CC4)nc3s2)cc1,inactive: -9.78%
5,CCOC(=O)c1ccc(NC(=O)C(Cc2ccccc2)N2Cc3ccccc3C2=O)cc1 (centres undefined),inactive: -7.82%
6,CCCOc1ccc(C(=O)Nc2ccc3oc(-c4cccc(Cl)c4Cl)nc3c2)cc1,inactive: -6.54%
7,CCOC(=O)c1ccc(NC(=O)CSc2cn(CC(=O)N3CCCC3)c3ccccc23)cc1,inactive: -13.3%
8,CCc1ccc(-c2cn3c(n2)sc2cc(C(=O)NCCC4=CCCCC4)ccc23)cc1,inactive: -11.7%
9,CC(C)c1ccc(NC(=O)Cn2cc(S(=O)(=O)Cc3cccc(Cl)c3)c3ccccc32)cc1,inactive: -6.52%
10,O=C(CCS(=O)(=O)c1nc(-c2cccs2)cc(C(F)(F)F)n1)Nc1cc(Br)ccc1O,inactive: -13.1%
11,COc1ccc(C(=O)Nc2nc3n(n2)C(c2ccccc2)C=C(c2ccccc2)N3)cc1 (centres undefined),inactive: 12.6%
12,Cc1ccc(NC(=O)Cn2c(=O)n(Cc3nc(C)no3)c(=O)c3cc4c(cc32)OCO4)c(C)c1,inactive: -7.19%
13,CCCn1c(SCc2nc(-c3ccccc3OCC)no2)nnc1-c1ccc(Cl)cc1,inactive: -15.5%
14,CCOc1ccccc1C(=O)N(Cc1cc(OC)c(OC)c(OC)c1)c1ccccn1,inactive: -4.21%
15,N#Cc1nc(COc2cccc(Cl)c2)oc1NCCc1ccccc1,inactive: 2.22%
16,CC(C)c1ccc(NC(=O)CSc2nc(=O)n(Cc3ccccn3)c3c2CCC3)cc1,inactive: -12.9%
17,Cc1c(C(=O)NN2CCCCC2)nn(-c2ccc(Cl)cc2Cl)c1-c1ccc(Cl)cc1,inactive: -19.7%
18,CCN(CC)S(=O)(=O)c1ccc(NC(=O)[C@H](CCSC)N2Cc3ccccc3C2=O)cc1,inactive: 7.99%
19,Cc1ccc(S(=O)(=O)c2nnn3c2nc(N2CCCCC2)c2sccc23)cc1,inactive: -21.7%
20,CCn1ccc2cc(S(=O)(=O)N3CCCN(C(=O)Nc4ccc(C)cc4)CC3)ccc21,inactive: 22.1%
21,Cc1cccc(Cn2c(-c3cccs3)nc3ccccc32)c1,inactive: -9.05%

row,SMILES,activation
1,CCOc1ccc(Cn2c(CNS(=O)(=O)c3cccs3)nc3cccnc32)cc1,inactive: -17.7%
2,Cn1c(=O)c2c(nc(SCC(=O)Nc3ccc(F)cc3)n2Cc2ccc(Cl)cc2)n(C)c1=O,inactive: 0.276%
3,Cc1cc(C)cc(N(C)S(=O)(=O)c2nnc(NC(=O)COc3ccc(Cl)cc3)s2)c1,inactive: 22.6%
4,CC(=O)c1cccc(NC(=O)CN2C(=O)CN(C)C(=O)c3ccccc32)c1,inactive: -2.27%
5,CCc1nc(SCc2cc(=O)c3cc(F)ccc3[nH]2)n[nH]1,inactive: 2.42%
6,Cc1ccc(N2CCN(c3cc(C)nc4c(-c5ccc(Cl)cc5)c(C)nn34)CC2C)cc1 (centres undefined),inactive: -2.08%
7,NC(=O)Cn1c(=O)n(-c2ccc(F)c(Cl)c2)c(=O)c2sc3ccccc3c21,inactive: 2.74%
8,CCOc1ccc(NC(=O)c2ccc3c(c2)c(C)c(C)n3Cc2ccc(F)cc2)cc1,inactive: -11.5%
9,Cc1cn2c(=O)c(S(=O)(=O)NC(C)c3ccccc3)c(C)nc2s1 (centres undefined),inactive: -7.39%
10,Cc1ccc(NC(=O)Cn2ncc3c4ccccc4n(Cc4ccccc4)c3c2=O)cc1Cl,inactive: -3.3%
11,COc1ccc(C(=O)Nc2nc3nc(C)c(Cl)c(=O)n3[nH]2)cc1,inactive: 5.27%
12,Cc1oc(-c2ccccc2Cl)nc1CS(=O)(=O)CC(=O)NC(C)CCc1ccccc1 (centres undefined),inactive: 23.7%
13,COc1ccc(OC)c(NC(=O)C(NS(=O)(=O)c2ccc3c(c2)CCCC(=O)N3)C(C)C)c1 (centres undefined),inactive: 8.23%
14,COc1ccc(NC(=O)CC2C(=O)N(c3cccc(OC)c3)C(=O)N2Cc2cccnc2)cc1 (centres undefined),inactive: 0.223%
15,Cc1ccc2nc(Cl)c3cc(C(=O)NC4CCCCC4)sc3c2c1,inactive: -6.58%
16,CN1CCc2nc3sc(C(=O)Nc4c(F)cccc4F)c(N)c3cc2C1,inactive: 0.524%
17,NS(=O)(=O)c1ccc(Cl)c(S(N)(=O)=O)c1,inactive: 5.32%
18,CCOC(=O)c1ccc(NC(=O)c2nsc3ccccc23)cc1,inactive: -27.7%
19,CCOC(=O)c1cc(S(=O)(=O)N2CCN(c3cc(Cl)ccc3C)CC2)[nH]n1,inactive: -30.1%
20,CCOc1ccc(NC(=O)Cn2c(=O)c(CNc3ccc(OC)cc3)cc3ccc(OC)cc32)cc1,inactive: 6.63%
21,Cc1ccc(-c2cnc(NCc3c(F)cccc3Cl)n2C)cc1,inactive: -42.3%

row,SMILES,activation
1,Cc1cc(=O)n2nc(N3CCC(C(=O)NCc4ccccc4Cl)CC3)sc2n1,inactive: -20.9%
2,Cc1nc(-c2cccc(S(=O)(=O)N3CCC(C(=O)NCc4ccccc4)CC3)c2)no1,inactive: -14.3%
3,CCc1ccc(OCC(=O)Nc2c(C(=O)c3ccccc3)oc3ccccc23)cc1,inactive: -20.3%
4,CCCN(C(=O)Cn1cnc2sc(C)c(S(=O)(=O)N3CCN(c4ncccn4)CC3)c2c1=O)c1cccc(C)c1,inactive: -4.03%
5,Cc1ccccc1NC(=O)CCc1c(C)nc2c(c1C)c(=O)n(C)c(=O)n2C,inactive: 5.53%
6,COc1ccc(NS(=O)(=O)c2ccc3c(c2)oc(=O)n3C)cc1Cl,inactive: 8.51%
7,COc1ccc(OC)c(S(=O)(=O)Nc2ccc3[nH]c(=O)[nH]c3c2)c1,inactive: -14%
8,Cc1cccc(CN2C(=O)c3ccccc3S(=O)(=O)c3ccc(C(=O)N4CCCC4)cc32)c1,inactive: -19.7%
9,Cc1ccc(C(=O)Nc2cc3cc(Cl)ccc3oc2=O)cc1,active: 61.8%
10,Cc1ccc(-c2nc(CCNC(=O)C(=O)Nc3ccc(F)cc3F)cs2)cc1,inactive: -8.78%
11,Cc1ccc2c(c1)N(CC(=O)NCCCN1CCCCC1)C(=O)c1cccnc1O2,inactive: 1.31%
12,COc1ccccc1NCc1nnc2n1CCCCC2,inactive: 25%
13,COc1ccccc1CNC(=O)CCCN1C(=O)CCn2nc(-c3cn(C)c4ccccc34)cc21,inactive: 5.04%
14,Cc1ccc(-c2nc3sc(CCNC(=O)c4ccco4)c(C)n3n2)cc1,active: 64.9%
15,CC(C)C(=O)Nc1c(C(=O)N2CCN(c3ccccc3F)CC2)oc2ccccc12,inactive: -17.5%
16,Fc1ccc(C(c2nnc(-c3ccccc3)o2)N2CCN(c3ccccc3)CC2)c(Cl)c1 (centres undefined),inactive: -25.7%
17,Cc1ccc(CSc2nc3ccncc3n2Cc2nc(-c3ccc(Cl)cc3)oc2C)cc1,inactive: -8.97%
18,CCOc1ccc(S(=O)(=O)N(C(C)=O)c2ccc3oc(C)c(C(=O)OC)c3c2)cc1,inactive: 14.6%
19,COc1cc(Cl)c(C)cc1NC(=O)c1nn(-c2ccc(C)cc2)c(=O)n(C)c1=O,inactive: 10.8%
20,COc1cccc(NC(=O)CSc2c(C)cnc3c2c(=O)n(C)c(=O)n3C)c1,inactive: -13.8%
21,CCCOC(=O)c1c(NC(=O)c2cc3nc(-c4ccc(OC)cc4)cc(C(F)(F)F)n3n2)sc2c1CCCC2,inactive: 16%

row,SMILES,activation
1,CCOc1ccc(N2CC(NC(=O)c3cc4ccccc4o3)CC2=O)cc1 (centres undefined),inactive: -12.8%
2,Cc1ccc(C)c(NC(=O)Cn2c(-c3nonc3N)nc3ccccc32)c1,inactive: -1.38%
3,COc1ccc2oc(=O)c(C(=O)N3CCN(c4cc(Cl)ccc4Cl)CC3)cc2c1,inactive: -12.1%
4,CCOC(=O)c1ccc(NC(=O)C(=O)NCCc2ccc(OC)cc2)cc1,inactive: 26.3%
5,CCCC(=O)Nc1cccc(-c2nc3ncccc3o2)c1,inactive: 9.51%
6,COc1ccccc1N1CCN(C(=O)c2cnn(C(C)(C)C)c2C2CCN(C(=O)OC(C)(C)C)CC2)CC1,inactive: -18.8%
7,COc1ccc(N2CCN(C(=O)c3c(C)oc4nc(C)nc(N5CCCC5)c34)CC2)cc1,inactive: -17.6%
8,Cc1ccc(N(C)S(=O)(=O)c2c(-c3ccccc3)csc2C(=O)O)cc1,inactive: 10.3%
9,Cc1cc2nc(-c3cccc(NC(=O)COc4ccc(C(C)C)cc4)c3)oc2cc1C,inactive: -6.15%
10,CCCCCCCCCCCCOCCOCCOCCOCCOCCOCCOCCOCCOCCO,active: 99%
11,CS(=O)(=O)c1ccc(-c2cn3ccccc3n2)cc1,inactive: 8.51%
12,COc1ccc(-c2nc(C)c(CCNC(=O)c3cccs3)s2)cc1,inactive: 26%
13,Cc1ccccc1-c1nnc(SCC(=O)N2CCCc3ccccc32)o1,inactive: -2.72%
14,CCCNC(=O)c1c(NC(=O)c2ccccc2F)sc2c1CCCCC2,inactive: 8.5%
15,Cc1nc(-c2ccc(S(=O)(=O)Nc3ccc(OC(F)(F)F)cc3)cc2)co1,active: 114%
16,CC(C)c1ccc(N2C(=O)CSC23C(=O)N(Cc2ccccc2F)c2ccccc23)cc1 (centres undefined),inactive: 2.6%
17,Cc1ccc(NC(=O)N2CCC(CN3CCCCCC3)CC2)c(Cl)c1,inactive: -17.2%
18,COc1ccc(-c2nc(SCC(=O)Nc3ccc4c(c3)OCO4)c(-c3ccc(F)cc3)[nH]2)cc1OC,inactive: 1.3%
19,O=C1c2ccccc2C(=O)C1(c1ccccc1)N1CCN(c2cccc(C(F)(F)F)c2)CC1,inactive: -21.9%
20,CCOc1ccccc1NC(=O)CCc1nc(-c2cccc(C)c2)no1,inactive: -8.52%
21,CC(C)Oc1ccc(CNS(=O)(=O)c2csc(C(N)=O)c2)cc1,inactive: 13.7%
